# Reference: PubChem BioAssay (Tox21)
# Values joined by “and” are separate entries in the source; they are usually repeats but may differ in a detail not shown here. Equal entries are not always repeated. Inconclusive results, whose numbers are uncertain, are shown with a selection of clear calls. For some of these results: Where the call is inconclusive, the potency comes from a doubtful curve fit. Active and inactive are the calls of the source. Unless noted, the call rests on the fitted dose curve; in most records, active means well fitted curve in the direction sought with a large enough effect in the repeat runs; inconclusive means weak or mixed curves; inactive means no such curve, though single readings can be large; an effect the other way counts as inactive or inconclusive.
# What was measured:
# [1] = qHTS assay for identifying genotoxic compounds that show differential cytotoxicity against isogenic chicken DT40 cell lines with known DNA damage response pathways - wild type cell line (AID 743012); details: DT40 wild type chicken cells viability, CellTiter-Glo, 40 h; activity change, negative = cytotoxicity: at 68.4 µM (top of the series) unless noted; further: nearly all actives have a fitted effect of over 60% in size; further: potency means the concentration at half of the fitted maximal effect
# Method in brief: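 300 wt DT40 cells/well; cpd (DMSO) pintool-transferred after ~0.5 h at 37 C/5% CO2; 40 h incubation; CellTiter-Glo added, 30 min RT; luminescence read.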
# [2] = qHTS assay for identifying genotoxic compounds that show differential cytotoxicity against isogenic chicken DT40 cell lines with known DNA damage response pathways - Rev3 mutant cell line (AID 743014); details: chicken DT40 Rev3-/- viability, CellTiter-Glo, 40 h; activity, negative = cytotoxicity: at 68.4 µM (top of the series) unless noted; further: nearly all actives have a fitted effect of over 55% in size; further: potency means the concentration at half of the fitted maximal effect
# [3] = qHTS assay for identifying genotoxic compounds that show differential cytotoxicity against isogenic chicken DT40 cell lines with known DNA damage response pathways - Rad54/Ku70 mutant cell line (AID 743015); details: DT40 Rad54/Ku70 mutant viability, CellTiter-Glo, 40 h; activity change, negative = cytotoxicity: at 66.8 µM (top of the series); further: nearly all actives have a fitted effect of over 60% in size; further: potency means the concentration at half of the fitted maximal effect
# [4] = qHTS assay to identify small molecule antagonists of the androgen receptor (AR) signaling pathway - cell viability counter screen (AID 743033; further: nearly all actives have a fitted effect of over 45% in size; further: potency means the concentration at half of the fitted maximal effect); details: AR-bla HEK293 viability, CellTiter-Glo luminescence, 16 h; activity change, negative = cytotoxicity: at 58.5 µM (top of the series) unless noted
# [5] = target: Androgen receptor (Homo sapiens) (UniProt P10275); test: qHTS assay to identify small molecule antagonists of the androgen receptor (AR) signaling pathway (AID 743035; active means well fitted inhibition curve with a large enough effect in the signal ratio in the repeat runs, not every such curve was filed as active; inconclusive means weak or mixed curves, or effect the other way; inactive means no such curve, though single readings can be large or run the other way; the % refers to the signal ratio); details: HEK293 AR-UAS-bla, R1881-stimulated, beta-lactamase FRET, 16 h
# Method in brief: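 In this cell-based reporter screen, compounds were tested in concentration series against R1881-activated HEK293 cells expressing beta-lactamase under UAS control; after 16 h at 37C, FRET substrate was added and fluorescence read 2 h later.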
# [6] = activity change, negative = inhibition: at 58.5 µM (top of the series) unless noted
# On the % scale 0 is the no-effect control and ±100 the full control effect; tags describe the fitted curve by direction and shape.
# Sequence of UniProt P10275 (P10275 whole entry, looked up): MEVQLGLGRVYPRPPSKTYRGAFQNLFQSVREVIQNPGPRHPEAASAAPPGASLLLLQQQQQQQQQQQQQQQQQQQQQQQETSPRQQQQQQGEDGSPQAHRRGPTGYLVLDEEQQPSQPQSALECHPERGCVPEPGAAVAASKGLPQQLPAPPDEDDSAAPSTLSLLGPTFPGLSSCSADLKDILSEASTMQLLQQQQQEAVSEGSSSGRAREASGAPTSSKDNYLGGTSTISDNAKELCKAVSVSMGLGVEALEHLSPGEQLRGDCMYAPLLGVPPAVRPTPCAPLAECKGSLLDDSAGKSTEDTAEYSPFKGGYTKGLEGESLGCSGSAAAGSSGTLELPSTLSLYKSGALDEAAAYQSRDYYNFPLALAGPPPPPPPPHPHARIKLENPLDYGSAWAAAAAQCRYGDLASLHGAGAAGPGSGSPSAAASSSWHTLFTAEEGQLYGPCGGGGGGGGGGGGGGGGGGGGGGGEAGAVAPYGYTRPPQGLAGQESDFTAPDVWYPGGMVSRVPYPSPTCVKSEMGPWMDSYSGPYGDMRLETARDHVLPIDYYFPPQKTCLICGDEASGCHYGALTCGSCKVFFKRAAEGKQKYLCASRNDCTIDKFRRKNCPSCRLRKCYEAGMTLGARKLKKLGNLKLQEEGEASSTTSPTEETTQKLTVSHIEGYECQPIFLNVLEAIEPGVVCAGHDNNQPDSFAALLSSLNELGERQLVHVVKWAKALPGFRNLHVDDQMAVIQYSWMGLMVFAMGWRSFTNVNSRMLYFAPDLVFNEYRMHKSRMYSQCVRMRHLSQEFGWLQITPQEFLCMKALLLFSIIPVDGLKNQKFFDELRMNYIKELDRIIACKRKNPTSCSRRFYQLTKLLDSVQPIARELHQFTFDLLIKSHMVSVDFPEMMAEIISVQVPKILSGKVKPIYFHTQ
smiles,measurement,setting,value
O=C(O)c1ccco1,Potency,[1],"inconclusive: 7.7 µM [rising, partial curve, poor fit]"
same,Potency,[2],inactive
CS(C)=O,Potency,[1],"inconclusive: 68.6 µM [cytotoxic, single point]"
same,Potency,[2],"inconclusive: 68.6 µM [cytotoxic, single point]"
C[Si]1(C)N[Si](C)(C)N[Si](C)(C)N1,Potency,[1],inactive
same,Potency,[2],"inconclusive: 61.1 µM [cytotoxic, single point]"
CC1=CCC(C(C)C)C=C1 (configuration not stated),Potency,[1],inactive
same,Potency,[2],"inconclusive: 68.6 µM [cytotoxic, single point]"
same,Potency,[3],"inconclusive: 68.6 µM [cytotoxic, single point]"
CC(=O)OC/C=C(\C)CCC=C(C)C,"activity change, negative = cytotoxicity",[1],inconclusive: -10.9%
same,Potency,[2],"inconclusive: 43.3 µM [cytotoxic, partial curve, poor fit]"
same,Potency,[3],"inconclusive: 54.5 µM [cytotoxic, single point]"
CCOC(=O)/C=C/C(=O)O,Potency,[1],inactive
same,Potency,[2],"inconclusive: 43.3 µM [cytotoxic, partial curve]"
same,Potency,[3],"inconclusive: 68.6 µM [cytotoxic, single point]"
C=C(C)C(=O)Nc1ccc(Cl)c(Cl)c1,Potency,[1],inconclusive: 69.3 µM [cytotoxic]
same,Potency,[2],inconclusive: 69.3 µM [cytotoxic]
same,Potency,[3],"inconclusive: 69.3 µM [cytotoxic, single point] and inactive"
same,Potency,[4],"inconclusive: 17.6 µM [cytotoxic] and inconclusive: 27.4 µM [cytotoxic, partial curve, poor fit]"
CC1(C)[C@@H]2CC[C@]3(C2)[C@@H]1C(=O)CCC3(C)C,Potency,[1],"inconclusive: 48.6 µM [cytotoxic, partial curve, poor fit]"
same,Potency,[2],"inconclusive: 68.6 µM [cytotoxic, single point]"
same,Potency,[3],"inconclusive: 68.6 µM [cytotoxic, single point]"
same,Potency,[5]; [6],inactive
O=[N+]([O-])c1ccc(/C=N\O)o1,Potency,[1],"inconclusive: 33.5 µM [cytotoxic, single point]"
same,Potency,[2],inconclusive: 33.5 µM [cytotoxic]
same,Potency,[3],"inconclusive: 33.5 µM [cytotoxic, single point]"
same,Potency,[4],inactive
COC(=O)Cc1cccc2ccccc12,Potency,[1],inconclusive: 68.6 µM [cytotoxic]
same,Potency,[2],active: 54.5 µM
same,Potency,[3],"inconclusive: 61.1 µM [cytotoxic, single point]"
same,"activity change, negative = inhibition",[5]; [6],inconclusive: 4.28%
CC(C)(C)c1ccc(-c2ccc(C(C)(C)C)cc2)cc1,Potency,[1],"inconclusive: 68.6 µM [cytotoxic, partial curve, poor fit]"
same,Potency,[2],"inconclusive: 61.1 µM [cytotoxic, single point]"
same,Potency,[4],"inconclusive: 6.17 µM [cytotoxic, full curve, poor fit]"
O=C(Oc1ccccc1C(=O)O)c1ccccc1O,Potency,[1],inconclusive: 23.7 µM
same,Potency,[2],"inconclusive: 23.7 µM [rising, partial curve, poor fit]"
same,Potency,[4],inactive
C[C@H]1C[C@@H]2[C@H]([C@@H](O)C[C@@]3(C)[C@H]2CC[C@]3(O)C(=O)CO)[C@@]2(C)C=CC(=O)C=C12,Potency,[1],"inconclusive: 68.6 µM [cytotoxic, single point]"
same,Potency,[2],"inconclusive: 24.3 µM [cytotoxic, partial curve]"
same,Potency,[3],"inconclusive: 54.5 µM [cytotoxic, partial curve]"
same,"activity change, negative = inhibition",[5]; at 27 µM (top of the series),inconclusive: -20.1%
same,"activity change, negative = inhibition",[5]; at 58.5 µM (top of the series),inconclusive: -17.6%
Cc1c(-c2ccccc2)oc2c(C(=O)OCCN3CCCCC3)cccc2c1=O,Potency,[1],inactive
same,Potency,[3],inactive
C[C@]12C=CC(=O)C=C1[C@@H](F)C[C@@H]1[C@@H]2[C@@H](O)C[C@@]2(C)[C@H]1CC[C@]2(O)C(=O)CO,Potency,[1],"inconclusive: 26.6 µM [cytotoxic, partial curve, poor fit]"
same,Potency,[2],"active: 18.8 µM and inconclusive: 23.7 µM [cytotoxic, partial curve]"
same,Potency,[4],inactive
O=C(OCCCCCOC(=O)c1ccccc1)c1ccccc1,Potency,[1],"inconclusive: 68.6 µM [cytotoxic, single point]"
same,Potency,[3],"inconclusive: 19.3 µM [cytotoxic, partial curve, poor fit]"
C[N+]12CCC(CC1)C(OC(=O)C(O)(c1ccccc1)c1ccccc1)C2 (configuration not stated),Potency,[1],inactive
same,Potency,[2],"inconclusive: 12.7 µM [rising, partial curve, poor fit]"
same,Potency,[4],inactive
